Measured values taken from PubChem BioAssay AID624417 (National Center for Advancing Translational Sciences (NCATS), 2012).
The campaign covered roughly 410,000 compounds. About 6,400 (1.6%) were called active. The inconclusive results got no clear call from the source; some entries with a clear call stand among them for comparison. Calls follow the shape of the dose curve; as a rule, active = well fitted inhibition curve with a large enough effect; inconclusive = small, poorly fitted or top-dose-only effect; inactive = no such curve, though single readings can be large or run the other way. No potency is given beside an inconclusive call; the fits are too rough.

Each compound was assayed against Glucagon-like peptide 1 receptor (Homo sapiens) (UniProt P43220) (assay: qHTS of GLP-1 Receptor Inverse Agonists (Inhibition Mode)). Conditions: HEK293 GLP-1R CRE-luciferase, luminescence, 24 h, GLP-1R form is constitutively active; activity change, negative = inhibition: at 38.3 µM (top of the series) unless noted.
Procedure, shortened: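 Constitutively active GLP-1R drives a cAMP-responsive luciferase in stably transfected HEK293 cells; test compounds are added after overnight (12 h) attachment and left 24 hr, and signal loss in luminescence marks inhibition.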
% is scaled to controls: 0 for no effect and ±100 for the full control effect; potency is read from the fitted curve at half-maximal effect; tags tell the direction and shape of the fitted curve.
Also: nearly all actives have a fitted effect of over 55% in size.

Sequence of UniProt P43220 (P43220 whole entry, looked up): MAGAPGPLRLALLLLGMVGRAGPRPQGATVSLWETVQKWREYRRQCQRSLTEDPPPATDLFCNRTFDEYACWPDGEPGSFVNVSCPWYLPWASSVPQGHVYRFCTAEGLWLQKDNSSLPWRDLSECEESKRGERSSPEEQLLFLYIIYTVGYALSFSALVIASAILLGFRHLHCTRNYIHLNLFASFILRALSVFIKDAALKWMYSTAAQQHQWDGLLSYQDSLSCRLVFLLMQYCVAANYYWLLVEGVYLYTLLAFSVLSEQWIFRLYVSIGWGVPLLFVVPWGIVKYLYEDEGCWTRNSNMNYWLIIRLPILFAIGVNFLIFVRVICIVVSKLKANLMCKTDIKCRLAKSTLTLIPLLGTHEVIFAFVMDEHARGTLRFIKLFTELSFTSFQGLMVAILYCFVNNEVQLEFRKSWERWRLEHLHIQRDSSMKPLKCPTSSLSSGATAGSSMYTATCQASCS

| SMILES | Potency | activity change, negative = inhibition |
| --- | --- | --- |
| CCOc1ccc(NC(=O)OCCN2CCN(CCc3ccccc3)C(C)C2)cc1 (configuration not stated) | inconclusive [inhibitor, single point] | – |
| COc1ccc(COC(=O)C2=C(C)NC(=O)NC2c2ccc(OC)cc2)cc1 (configuration not stated) | inconclusive [inhibitor, single point] | – |
| Cc1ccsc1C(=O)N1CCc2ccccc2C1 | inconclusive [inhibitor, single point] | – |
| CCC/C=N/NC(=O)c1[nH]c2c([N+](=O)[O-])cccc2c1C | inconclusive [inhibitor, full curve, poor fit] | – |
| CCN(CC)c1ccc2cc(-c3nnc(-c4ccncc4)o3)c(=O)oc2c1 | inactive | – |
| Cc1ccc2c(c1)Sc1c(ccc3ccccc13)N2 | inconclusive [inhibitor, single point] | – |
| NC(=S)N/N=C/c1ccccc1OCc1cccc(Cl)c1 | inconclusive [inhibitor, full curve, poor fit] | – |
| CN1CC(c2ccc(C#N)cc2)C2(COc3ccccc3C2=O)C12C(=O)Nc1ccccc12 (configuration not stated) | inconclusive [inhibitor, single point] | – |
| O=C(COc1ccccc1)Nc1ccc(C(=O)OCc2cc(=O)n3nc(C4CC4)sc3n2)cc1 | inactive | – |
| COC1=C(Br)C(=O)c2ncccc2C1=O | inconclusive [inhibitor, single point] | – |
| Cc1nc2ccc(NS(=O)(=O)c3ccc(F)c(C)c3)cc2[nH]1 | inactive | – |
| COc1ccc(-c2oc(NC(=O)CSc3ncn[nH]3)c(C#N)c2-c2ccc(OC)cc2)cc1 | inactive | – |
| Cc1ccc(OCc2nc3ccccc3n2C(C(=O)NC(C)(C)C)c2ccccc2)cc1 (configuration not stated) | inconclusive [inhibitor, single point] | – |
| CCOc1ccccc1CNC(=O)CN1C(=O)CCCc2ccccc21 | inactive | – |
| Cc1ccc(-n2ncc3c(NCCc4ccccc4)ncnc32)cc1C | inconclusive [inhibitor, single point] | – |
| O=C(NCc1ccccc1CN1CCCC1)c1ccc(S(=O)(=O)Nc2ccccc2F)cc1 | inactive | – |
| Cc1ccc(C(=O)Sc2cccccc2=O)cc1 | inconclusive [inhibitor, full curve, poor fit] | – |
| CC(NC(=O)NC1CCCCC1)C(c1cccs1)N1CCN(c2ccccc2)CC1 (configuration not stated) | inconclusive [inhibitor, single point] | – |
| O=C(Nc1cccnc1)c1ccc(COc2ccccc2Br)cc1 | inconclusive [inhibitor, single point] | – |
| CC(C)(O)CN(C(=O)C(c1ccccc1)c1ccccc1)C1CCCCC1 | inconclusive [inhibitor, single point] | – |
| COc1ccc(-c2nc(-c3ccc(NC(=O)c4ccc(Br)o4)cc3)no2)cc1OC | inconclusive [inhibitor, partial curve, poor fit] | – |

| SMILES | Potency | activity change, negative = inhibition |
| --- | --- | --- |
| CCOc1ccc(NC(=O)NC(C)c2c(-n3cccc3)sc(C)c2C)cc1 (configuration not stated) | inconclusive [inhibitor, single point] | – |
| O=C(NC(c1ccc(-c2ccccc2)cc1)c1cnccn1)C1CCN(Cc2cccs2)CC1 (configuration not stated) | inconclusive [inhibitor, partial curve, poor fit] | – |
| Cc1cc(Oc2nc3ccccn3c(=O)c2/C=C(\C#N)C(=O)NC2CCS(=O)(=O)C2)ccc1Cl (configuration not stated) | inconclusive [inhibitor, partial curve, poor fit] | – |
| COc1ccccc1NC(=O)Nc1nc(CC(=O)Nc2ccc(N(C)C)cc2)cs1 | inconclusive [inhibitor, single point] | – |
| CCn1nccc1C(=O)Nc1ccc(Cl)c(Cl)c1 | inconclusive [inhibitor, single point] | – |
| COc1ccc(-c2cc3nc(-c4ccccc4)cc(N4CCCC(O)C4)n3n2)cc1 (configuration not stated) | inconclusive [inhibitor, partial curve, poor fit] | – |
| CCS(=O)(=O)c1ccc(C(=O)Nc2cccc(Cl)c2)c(Cl)c1Cl | inconclusive [inhibitor, partial curve, poor fit] | – |
| Cc1cccc(N2CCN(C(=O)Cc3cn(C)c4ccccc34)CC2)c1C | inconclusive [inhibitor, partial curve, poor fit] | – |
| CCOC(=O)c1c(NC(=O)c2nn(CC)cc2Br)sc2c1CCCCC2 | inactive | – |
| Cc1ccc(N(CC(=O)N/N=C/c2cccs2)S(C)(=O)=O)cc1Cl | inconclusive [inhibitor, partial curve, poor fit] | – |
| CCN(CC)c1ccc(NC(=O)Nc2cccc(C(C)=O)c2)cc1 | inconclusive [inhibitor, partial curve, poor fit] | – |
| O=C(c1ccc(=O)oc1)N1CCCc2ccccc21 | inactive | – |
| CCCCCCCCN1[C@@H](CC(C)=O)c2cc(C(F)(F)F)ccc2S1(=O)=O | inconclusive [inhibitor, partial curve, poor fit] | – |
| O=C(COc1ccc(Cl)cc1)N1CCN(S(=O)(=O)c2cc(F)ccc2F)CC1 | inconclusive [inhibitor, single point] | – |
| CCCCC(=O)N1CCN(c2nc3ccc(Br)cc3s2)CC1 | inconclusive [inhibitor, partial curve, poor fit] | – |
| O=C(Nc1ccc(N2CCOCC2)c(Cl)c1)c1ccc(Cl)cc1 | – | inactive: -6.72% [at 0.307 µM] |
| COc1ccc(Cl)cc1C(=O)O/N=C(\N)c1ccccn1 | inconclusive [inhibitor, single point] | – |
| Cc1ccccc1NC(=O)Cn1c(=O)n(Cc2ccc3c(c2)OCO3)c(=O)c2ccccc21 | inactive | – |
| O=C(COC(=O)c1n[nH]c2ccccc12)Nc1cccc(S(=O)(=O)N2CCOCC2)c1 | inactive | – |
| O=C(c1ccc(COc2ccccc2)o1)N1CCN(S(=O)(=O)c2ccccc2Cl)CC1 | inconclusive [inhibitor, single point] | – |
| O=C(c1ccc(Cl)c(S(=O)(=O)NCc2ccco2)c1)N1CCN(c2ccccc2F)CC1 | inconclusive [inhibitor, single point] | – |
